According to the supplement of paper PMC8728848:
This is one part of the list.

Experiments:
Test in all cases: glycan array binding signal (z-score within array); higher = stronger binding
Conditions in all cases: glycan notation: IUPAC condensed, linker removed
[1] = molecular target: GlcNAc(b1-6)Gal(b1-4)GlcNAc
In short: (§1)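 From the Consortium for Functional Glycomics database, 3228 arrays were curated, keeping only those whose protein sequence was available. Binding is given as a within-array Z-score averaged across arrays sharing a protein sequence and across linkers. Negative Z-scores can be read as non-binding.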

[2] = molecular target: GlcNAc(b1-6)GalNAc
In short: as §1

[3] = molecular target: GlcNAc3Prop(b1-4)GlcNAc
In short: as §1

[4] = molecular target: GlcNAc6S(b1-3)Gal(b1-4)GlcNAc
In short: as §1

[5] = molecular target: Kdn(a2-3)Gal(b1-3)GalNAc
In short: as §1

[6] = molecular target: Kdn(a2-3)Gal(b1-3)GlcNAc
In short: as §1

[7] = molecular target: Kdn(a2-3)Gal(b1-4)Glc
In short: as §1

[8] = molecular target: Kdn(a2-3)Gal(b1-4)GlcNAc
In short: as §1

[9] = molecular target: Kdn(a2-3)Gal(b1-4)[Fuc(a1-3)]GlcNAc
In short: as §1

[10] = molecular target: Kdn(a2-6)Gal(b1-4)GlcNAc
In short: as §1

[11] = molecular target: Man(a1-2)Man(a1-2)Man(a1-3)Man
In short: as §1

[12] = molecular target: Man(a1-2)Man(a1-2)Man(a1-6)[Man(a1-3)]Man
In short: as §1

[13] = molecular target: Man(a1-2)Man(a1-3)Man
In short: as §1

[14] = molecular target: Man(a1-2)Man(a1-3)[Man(a1-2)Man(a1-6)]Man
In short: as §1

[15] = molecular target: Man(a1-2)Man(a1-3)[Man(a1-2)Man(a1-6)]Man(a1-6)[Man(a1-2)Man(a1-2)Man(a1-3)]Man
In short: as §1

[16] = molecular target: Man(a1-2)Man(a1-3)[Man(a1-2)Man(a1-6)]Man(a1-6)[Man(a1-2)Man(a1-2)Man(a1-3)]Man(b1-4)GlcNAc(b1-4)GlcNAc
In short: as §1

[17] = molecular target: Man(a1-2)Man(a1-3)[Man(a1-6)]Man(a1-6)[Man(a1-2)Man(a1-3)]Man(b1-4)GlcNAc(b1-4)GlcNAc
In short: as §1

[18] = molecular target: Man(a1-2)Man(a1-6)[Man(a1-3)]Man(a1-6)[Man(a1-2)Man(a1-2)Man(a1-3)]Man
In short: as §1

[19] = molecular target: Man(a1-2)Man(a1-6)[Man(a1-3)]Man(a1-6)[Man(a1-2)Man(a1-2)Man(a1-3)]Man(b1-4)GlcNAc(b1-4)GlcNAc
In short: as §1

[20] = molecular target: Man(a1-3)[Man(a1-6)]Man
In short: as §1

[21] = molecular target: Man(a1-3)[Man(a1-6)]Man(a1-6)[Man(a1-2)Man(a1-3)]Man(b1-4)GlcNAc(b1-4)GlcNAc
In short: as §1

[22] = molecular target: Man(a1-3)[Man(a1-6)]Man(a1-6)[Man(a1-3)]Man
In short: as §1

[23] = molecular target: Man(a1-3)[Man(a1-6)]Man(a1-6)[Man(a1-3)]Man(b1-4)GlcNAc(b1-4)GlcNAc
In short: as §1

[24] = molecular target: Man(a1-3)[Man(a1-6)]Man(b1-4)GlcNAc(b1-4)GlcNAc
In short: as §1

[25] = molecular target: Man(a1-6)Man
In short: as §1

[26] = molecular target: Man(b1-4)GlcNAc
In short: as §1

[27] = molecular target: Neu5Ac(a2-3)Gal
In short: as §1

[28] = molecular target: Neu5Ac(a2-3)Gal(b1-3)GalNAc
In short: as §1

[29] = molecular target: Neu5Ac(a2-3)Gal(b1-3)GalNAc(b1-3)Gal(a1-4)Gal(b1-4)Glc
In short: as §1

[30] = molecular target: Neu5Ac(a2-3)Gal(b1-3)GalNAc(b1-3)Gal(b1-4)GlcNAc
In short: as §1

[31] = molecular target: Neu5Ac(a2-3)Gal(b1-3)GalNAc(b1-4)[Neu5Ac(a2-3)]Gal(b1-4)Glc
In short: as §1

[32] = molecular target: Neu5Ac(a2-3)Gal(b1-3)GalNAc6S
In short: as §1

[33] = molecular target: Neu5Ac(a2-3)Gal(b1-3)GlcNAc
In short: as §1

[34] = molecular target: Neu5Ac(a2-3)Gal(b1-3)GlcNAc(b1-2)Man(a1-3)[Neu5Ac(a2-3)Gal(b1-3)GlcNAc(b1-2)Man(a1-6)]Man(b1-4)GlcNAc(b1-4)GlcNAc
In short: as §1

[35] = molecular target: Neu5Ac(a2-3)Gal(b1-3)GlcNAc(b1-3)Gal(b1-3)GlcNAc
In short: as §1

[36] = molecular target: Neu5Ac(a2-3)Gal(b1-3)GlcNAc(b1-3)Gal(b1-4)GlcNAc
In short: as §1

[37] = molecular target: Neu5Ac(a2-3)Gal(b1-3)GlcNAc(b1-3)GalNAc
In short: as §1

[38] = molecular target: Neu5Ac(a2-3)Gal(b1-3)GlcNAc6S
In short: as §1

[39] = molecular target: Neu5Ac(a2-3)Gal(b1-3)[Fuc(a1-4)]GlcNAc
In short: as §1

[40] = molecular target: Neu5Ac(a2-3)Gal(b1-3)[Fuc(a1-4)]GlcNAc(b1-3)Gal(b1-3)[Fuc(a1-4)]GlcNAc
In short: as §1

[41] = molecular target: Neu5Ac(a2-3)Gal(b1-3)[Fuc(a1-4)]GlcNAc(b1-3)Gal(b1-4)[Fuc(a1-3)]GlcNAc
In short: as §1

[42] = molecular target: Neu5Ac(a2-3)Gal(b1-3)[Neu5Ac(a2-3)Gal(b1-4)]GlcNAc
In short: as §1

[43] = molecular target: Neu5Ac(a2-3)Gal(b1-3)[Neu5Ac(a2-6)]GalNAc
In short: as §1

[44] = molecular target: Neu5Ac(a2-3)Gal(b1-4)Glc
In short: as §1

[45] = molecular target: Neu5Ac(a2-3)Gal(b1-4)GlcNAc
In short: as §1

B1: Tachylectin-2 (Tachypleus tridentatus), TAL2_TACTR (protein)
chain: VGGESMLRGVYQDKFYQGTYPQNKNDNWLARATLIGKGGWSNFKFLFLSPGGELYGVLNDKIYKGTPPTHDNDNWMGRAKKIGNGGWNQFQFLFFDPNGYLYAVSKDKLYKASPPQSDTDNWIARATEIGSGGWSGFKFLFFHPNGYLYAVHGQQFYKALPPVSNQDNWLARATKIGQGGWDTFKFLFFSSVGTLFGVQGGKFYEDYPPSYAHDNWLARAKLIGNGGWDDFRFLFF
[1]
  glycan array binding signal (z-score): -0.26
[2]
  glycan array binding signal (z-score): 1.42
[3]
  glycan array binding signal (z-score): -0.213
[4]
  glycan array binding signal (z-score): -0.284
[5]
  glycan array binding signal (z-score): -0.296
[6]
  glycan array binding signal (z-score): -0.365
[7]
  glycan array binding signal (z-score): -0.295
[8]
  glycan array binding signal (z-score): -0.372
[9]
  glycan array binding signal (z-score): -0.297
[10]
  glycan array binding signal (z-score): -0.295
[11]
  glycan array binding signal (z-score): -0.386
[12]
  glycan array binding signal (z-score): -0.33
[13]
  glycan array binding signal (z-score): -0.198
[14]
  glycan array binding signal (z-score): -0.251
[15]
  glycan array binding signal (z-score): -0.321
[16]
  glycan array binding signal (z-score): -0.329
[17]
  glycan array binding signal (z-score): -0.173
[18]
  glycan array binding signal (z-score): -0.195
[19]
  glycan array binding signal (z-score): -0.358
[20]
  glycan array binding signal (z-score): -0.313
[21]
  glycan array binding signal (z-score): -0.302
[22]
  glycan array binding signal (z-score): -0.344
[23]
  glycan array binding signal (z-score): -0.235
[24]
  glycan array binding signal (z-score): -0.246
[25]
  glycan array binding signal (z-score): -0.362
[26]
  glycan array binding signal (z-score): -0.282
[27]
  glycan array binding signal (z-score): -0.369
[28]
  glycan array binding signal (z-score): -0.249
[29]
  glycan array binding signal (z-score): -0.424
[30]
  glycan array binding signal (z-score): -0.029
[31]
  glycan array binding signal (z-score): -0.093
[32]
  glycan array binding signal (z-score): -0.226
[33]
  glycan array binding signal (z-score): -0.313
[34]
  glycan array binding signal (z-score): -0.303
[35]
  glycan array binding signal (z-score): -0.543
[36]
  glycan array binding signal (z-score): -0.296
[37]
  glycan array binding signal (z-score): -0.294
[38]
  glycan array binding signal (z-score): -0.057
[39]
  glycan array binding signal (z-score): -0.302
[40]
  glycan array binding signal (z-score): -0.295
[41]
  glycan array binding signal (z-score): -0.362
[42]
  glycan array binding signal (z-score): -0.319
[43]
  glycan array binding signal (z-score): -0.321
[44]
  glycan array binding signal (z-score): -0.324
[45]
  glycan array binding signal (z-score): -0.374
